Reference: patent US20190276511A1 (BIONTECH RNA PHARMACEUTICALS, published 2019)
Like-named read-outs stand apart in the source and are kept apart here. Values belong to the binder of their own block, whether it stands above or below them.

What was measured:
OX40-Fc [1] = biological target: T1, OX40-Fc (human, UniProt P43489 29-214); assay: ELISA, coated receptor-Fc
T1 construct: extracellular domain; hinge included for covalent assembly; also called OX40 receptor-Fc fusion protein; not shown: human Fc gamma 1 region including the hinge region
T1 sequence (looked up): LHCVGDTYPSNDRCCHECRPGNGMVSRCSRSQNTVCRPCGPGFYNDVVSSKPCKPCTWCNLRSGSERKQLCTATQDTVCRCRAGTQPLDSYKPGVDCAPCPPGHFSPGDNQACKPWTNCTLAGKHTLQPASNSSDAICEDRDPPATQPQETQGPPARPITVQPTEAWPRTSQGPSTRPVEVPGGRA

CD40-Fc [2] = biological target: T2, CD40-Fc (human, UniProt P25942 fragment); assay: ELISA, coated receptor-Fc
T2 construct: extracellular domain; hinge included for covalent assembly; also called CD40 receptor-Fc fusion protein; not shown: human Fc gamma 1 region including the hinge region

4-1BB receptor on cells [3] = biological target: T3, 4-1BB receptor on cells (human, UniProt Q07011 24-255); assay: cell-based or functional assay
4-1BB-Fc [4] = biological target: T4, 4-1BB-Fc (human, UniProt Q07011 24-186); assay: ELISA, coated receptor-Fc
T4 construct: extracellular domain; hinge included for covalent assembly; also called 4-1BB receptor-Fc fusion protein; not shown: human Fc gamma 1 region including the hinge region
Protocol: (§1) Receptor binding of the Duokines was analyzed by ELISA using fusion proteins of the extracellular region of CD40, CD27, 4-1BB and OX40, respectively, with the human Fcγ1 region including the hinge region for covalent assembly (CD40-Fc, CD27-Fc, 4-1BB-Fc, OX40-Fc). Receptor-Fc fusion proteins (200 ng/well) were coated overnight at 4° C. and remaining binding sites were blocked with PBS, 2% skimmed milk powder (2% MPBS).

CD27-Fc [5] = biological target: T5, CD27-Fc (human, UniProt P26842 20-191); assay: ELISA, coated receptor-Fc
T5 construct: extracellular domain; hinge included for covalent assembly; also called CD27 receptor-Fc fusion protein; not shown: human Fc gamma 1 region including the hinge region
T5 sequence (looked up): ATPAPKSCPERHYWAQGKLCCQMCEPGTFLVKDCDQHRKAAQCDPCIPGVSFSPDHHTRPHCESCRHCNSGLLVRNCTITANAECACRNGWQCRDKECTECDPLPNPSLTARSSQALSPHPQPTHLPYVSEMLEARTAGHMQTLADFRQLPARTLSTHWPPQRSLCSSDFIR
Protocol: as §1

CD27-Fc [6] = biological target: T5, CD27-Fc; assay: ELISA, coated receptor-Fc; remark: listed apart in the source
OX40 receptor on cells [7] = biological target: T6, OX40 receptor on cells (human, UniProt P43489 29-277); assay: cell-based or functional assay
T6 sequence (looked up): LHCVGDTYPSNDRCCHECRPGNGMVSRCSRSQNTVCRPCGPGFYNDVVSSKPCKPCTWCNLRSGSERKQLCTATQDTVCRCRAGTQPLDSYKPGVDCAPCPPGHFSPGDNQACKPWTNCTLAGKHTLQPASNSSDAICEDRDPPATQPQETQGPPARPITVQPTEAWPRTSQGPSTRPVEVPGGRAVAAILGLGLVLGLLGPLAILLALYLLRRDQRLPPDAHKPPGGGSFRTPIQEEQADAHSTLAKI

OX40-Fc [8] = biological target: T1, OX40-Fc; assay: ELISA, coated receptor-Fc; remark: listed apart in the source
Protocol: as §1

OX40 receptor on cells [9] = biological target: T6, OX40 receptor on cells; assay: cell-based or functional assay; remark: listed apart in the source
4-1BB receptor on cells [10] = biological target: T3, 4-1BB receptor on cells; assay: cell-based or functional assay; remark: listed apart in the source
T3 sequence (Q07011 24-255): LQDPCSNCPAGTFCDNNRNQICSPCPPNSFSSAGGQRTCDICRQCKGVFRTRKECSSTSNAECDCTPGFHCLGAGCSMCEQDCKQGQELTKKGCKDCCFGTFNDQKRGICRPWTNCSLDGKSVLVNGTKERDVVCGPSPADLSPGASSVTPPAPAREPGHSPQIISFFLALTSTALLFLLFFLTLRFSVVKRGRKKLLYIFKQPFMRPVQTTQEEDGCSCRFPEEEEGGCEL

OX40-Fc [11] = biological target: T1, OX40-Fc; assay: ELISA, coated receptor-Fc; remark: listed apart in the source
Protocol: as §1, with “of the single-chain Duokines was” for “of the Duokines was”, “(2% MPBS). […] The interactions between scDuokine and receptor were dose-dependent with EC₅₀ values in the low nanomolar ranges (FIG. 11 AB, Tab. 2).” for “(2% MPBS).”

4-1BB-Fc [12] = biological target: T4, 4-1BB-Fc; assay: ELISA, coated receptor-Fc; remark: listed apart in the source
Protocol: as §1, with “of the single-chain Duokines was” for “of the Duokines was”, “(2% MPBS). […] The interactions between scDuokine and receptor were dose-dependent with EC₅₀ values in the low nanomolar ranges (FIG. 11 AB, Tab. 2).” for “(2% MPBS).”

CD27-Fc [13] = biological target: T5, CD27-Fc; assay: ELISA, coated receptor-Fc; remark: listed apart in the source
Protocol: as §1, with “of the single-chain Duokines was” for “of the Duokines was”, “(2% MPBS). […] The interactions between scDuokine and receptor were dose-dependent with EC₅₀ values in the low nanomolar ranges (FIG. 11 AB, Tab. 2).” for “(2% MPBS).”

CD40 receptor on cells = CD40 receptor on cells (human, UniProt P25942 21-277); assay: cell-based or functional assay
Sequence of CD40 receptor on cells (P25942 21-277): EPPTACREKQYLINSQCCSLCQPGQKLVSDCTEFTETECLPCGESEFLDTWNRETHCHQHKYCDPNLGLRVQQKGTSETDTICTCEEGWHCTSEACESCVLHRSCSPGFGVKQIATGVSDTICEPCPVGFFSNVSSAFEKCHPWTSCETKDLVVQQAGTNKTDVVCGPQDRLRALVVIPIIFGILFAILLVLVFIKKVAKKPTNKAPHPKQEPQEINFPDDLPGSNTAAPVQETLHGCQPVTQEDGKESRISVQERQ

CD40-Fc [14] = biological target: T2, CD40-Fc; assay: ELISA, coated receptor-Fc; remark: listed apart in the source
T2 sequence (P25942 21-193 limits assumed): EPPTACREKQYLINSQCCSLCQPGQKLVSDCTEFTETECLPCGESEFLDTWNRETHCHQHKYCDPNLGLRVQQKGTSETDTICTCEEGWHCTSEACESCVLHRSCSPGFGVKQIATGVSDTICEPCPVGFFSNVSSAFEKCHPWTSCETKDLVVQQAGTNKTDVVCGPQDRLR
Protocol: as §1, with “of the single-chain Duokines was” for “of the Duokines was”, “(2% MPBS). […] The interactions between scDuokine and receptor were dose-dependent with EC₅₀ values in the low nanomolar ranges (FIG. 11 AB, Tab. 2).” for “(2% MPBS).”

B2: 4-1BBL-OX40L (ligand)
chain: [not shown - about 200 residues]GGGGSGGGGSGGGGSGGGGSQVSHRYPRIQSIKVQFTEYKKEKGFILTSQKEDEIMKVQNNSVIINCDGFYLISLKGYFSQEVNISLHYQKDEEPLFQLKKVRSVNSLMVASLTYKDKVYLNVTTDNTSLDDFHVNGGELILIHQNPGEFCVL
notes: Duokine from HEK293, FLAG-purified; VH leader left out; homotrimer by SEC; also called Duokine 4-1BBL-OX40L; not shown: N-terminal FLAG tag
binding result (CD27-Fc [6]): no binding (tested: 100 nM (FIG. 4)) | binding result (CD40-Fc [2]): no binding (tested: 100 nM (FIG. 4)) | Receptor activation (EC50, nM) (OX40 receptor on cells [7]): 1.35 nM | Receptor activation (EC50, nM) (4-1BB receptor on cells [3]): 1.16 nM | EC50 (OX40-Fc [8]): 0.45 nM | EC50 (4-1BB-Fc [4]): 1.13 nM

B4: sc4-1BBL-scCD27L (ligand)
chain: [not shown - about 200 residues]GGGGSGGGGSGGGGSREGPELSPDDPAGLLDLRQGMFAQLVAQNVLLIDGPLSWYSDPGLAGVSLTGGLSYKEDTKELVVAKAGVYYVFFQLELRRVVAGEGSGSVSLALHLQPLRSAAGAAALALTVDLPPASSEARNSAFGFQGRLLHLSAGQRLGVHLHTEARARHAWQLTQGATVLGLFRVTPEIPAGLPSPRSEGGGGSGGGGSGGGGSREGPELSPDDPAGLLDLRQGMFAQLVAQNVLLIDGPLSWYSDPGLAGVSLTGGLSYKEDTKELVVAKAGVYYVFFQLELRRVVAGEGSGSVSLALHLQPLRSAAGAAALALTVDLPPASSEARNSAFGFQGRLLHLSAGQRLGVHLHTEARARHAWQLTQGATVLGLFRVTPEIPAGLPSPRSEGGGGSGGGTGGGGSSLGWDVAELQLNHTGPQQDPRLYWQGGPALGRSFLHGPELDKGQLRIHRDGIYMVHIQVTLAICSSTTASRHHPTTLAVGICSPASRSISLLRLSFHQGCTIASQRLTPLARGDTLCTNLTGTLLPSRNTDETFFGVQWVRPGGGSGGGSLGWDVAELQLNHTGPQQDPRLYWQGGPALGRSFLHGPELDKGQLRIHRDGIYMVHIQVTLAICSSTTASRHHPTTLAVGICSPASRSISLLRLSFHQGCTIASQRLTPLARGDTLCTNLTGTLLPSRNTDETFFGVQWVRPGGGSGGGSLGWDVAELQLNHTGPQQDPRLYWQGGPALGRSFLHGPELDKGQLRIHRDGIYMVHIQVTLAICSSTTASRHHPTTLAVGICSPASRSISLLRLSFHQGCTIASQRLTPLARGDTLCTNLTGTLLPSRNTDETFFGVQWVRP
notes: scDuokine from HEK293; VH leader left out; also called single-chain Duokine sc4-1BBL-scCD27L; not shown: N-terminal FLAG tag
Receptor activation (EC50, nM) (4-1BB receptor on cells [10]): 1.37 nM | binding result (OX40-Fc [1]): no binding (tested: 100 nM (FIG. 10)) | binding result (CD40-Fc [2]): no binding (tested: 100 nM (FIG. 10)) | EC50 (4-1BB-Fc [12]): 2.9 nM | EC50 (CD27-Fc [13]): 2.75 nM

B5: sc4-1BBL-scCD40L (ligand)
chain: [not shown - about 200 residues]GGGGSGGGGSGGGGSREGPELSPDDPAGLLDLRQGMFAQLVAQNVLLIDGPLSWYSDPGLAGVSLTGGLSYKEDTKELVVAKAGVYYVFFQLELRRVVAGEGSGSVSLALHLQPLRSAAGAAALALTVDLPPASSEARNSAFGFQGRLLHLSAGQRLGVHLHTEARARHAWQLTQGATVLGLFRVTPEIPAGLPSPRSEGGGGSGGGGSGGGGSREGPELSPDDPAGLLDLRQGMFAQLVAQNVLLIDGPLSWYSDPGLAGVSLTGGLSYKEDTKELVVAKAGVYYVFFQLELRRVVAGEGSGSVSLALHLQPLRSAAGAAALALTVDLPPASSEARNSAFGFQGRLLHLSAGQRLGVHLHTEARARHAWQLTQGATVLGLFRVTPEIPAGLPSPRSEGGGGSGGGTGGGGSGDQNPQIAAHVISEASSKTTSVLQWAEKGYYTMSNNLVTLENGKQLTVKRQGLYYIYAQVTFCSNREASSQAPFIASLCLKSPGRFERILLRAANTHSSAKPCGQQSIHLGGVFELQPGASVFVNVTDPSQVSHGTGFTSFGLLKLGGGSGGGGDQNPQIAAHVISEASSKTTSVLQWAEKGYYTMSNNLVTLENGKQLTVKRQGLYYIYAQVTFCSNREASSQAPFIASLCLKSPGRFERILLRAANTHSSAKPCGQQSIHLGGVFELQPGASVFVNVTDPSQVSHGTGFTSFGLLKLGGGSGGGGDQNPQIAAHVISEASSKTTSVLQWAEKGYYTMSNNLVTLENGKQLTVKRQGLYYIYAQVTFCSNREASSQAPFIASLCLKSPGRFERILLRAANTHSSAKPCGQQSIHLGGVFELQPGASVFVNVTDPSQVSHGTGFTSFGLLKL
notes: scDuokine from HEK293; VH leader left out; also called single-chain Duokine sc4-1BBL-scCD40L; not shown: N-terminal FLAG tag
Receptor activation (EC50, nM) (CD40 receptor on cells): 2.85 nM | Receptor activation (EC50, nM) (4-1BB receptor on cells [10]): 0.18 nM | binding result (OX40-Fc [1]): no binding (tested: 100 nM (FIG. 10)) | binding result (CD27-Fc [6]): no binding (tested: 100 nM (FIG. 10)) | EC50 (4-1BB-Fc [12]): 2.28 nM | EC50 (CD40-Fc [14]): 5.73 nM

Now from value to binder:

binding result (OX40-Fc [1]): no binding (tested: 100 nM (FIG. 4)) | binding result (CD40-Fc [2]): no binding (tested: 100 nM (FIG. 4)) | Receptor activation (EC50, nM) (4-1BB receptor on cells [3]): 1.22 nM | EC50 (4-1BB-Fc [4]): 1.41 nM | EC50 (CD27-Fc [5]): 1.48 nM
B1: 4-1BBL-CD27L (ligand)
chain: [not shown - about 200 residues]GGGGSGGGGSGGGGSGGGGSSLGWDVAELQLNHTGPQQDPRLYWQGGPALGRSFLHGPELDKGQLRIHRDGIYMVHIQVTLAICSSTTASRHHPTTLAVGICSPASRSISLLRLSFHQGCTIASQRLTPLARGDTLCTNLTGTLLPSRNTDETFFGVQWVRP
notes: Duokine from HEK293, FLAG-purified; VH leader left out; homotrimer by SEC; also called Duokine 4-1BBL-CD27L; not shown: N-terminal FLAG tag

Receptor activation (EC50, nM) (OX40 receptor on cells [9]): 0.45 nM | Receptor activation (EC50, nM) (4-1BB receptor on cells [10]): 13.2 nM | binding result (CD27-Fc [6]): no binding (tested: 100 nM (FIG. 10)) | binding result (CD40-Fc [2]): no binding (tested: 100 nM (FIG. 10)) | EC50 (OX40-Fc [11]): 5.23 nM | EC50 (4-1BB-Fc [12]): 2.91 nM
B3: sc4-1BBL-scOX40L (ligand)
chain: [not shown - about 200 residues]GGGGSGGGGSGGGGSREGPELSPDDPAGLLDLRQGMFAQLVAQNVLLIDGPLSWYSDPGLAGVSLTGGLSYKEDTKELVVAKAGVYYVFFQLELRRVVAGEGSGSVSLALHLQPLRSAAGAAALALTVDLPPASSEARNSAFGFQGRLLHLSAGQRLGVHLHTEARARHAWQLTQGATVLGLFRVTPEIPAGLPSPRSEGGGGSGGGGSGGGGSREGPELSPDDPAGLLDLRQGMFAQLVAQNVLLIDGPLSWYSDPGLAGVSLTGGLSYKEDTKELVVAKAGVYYVFFQLELRRVVAGEGSGSVSLALHLQPLRSAAGAAALALTVDLPPASSEARNSAFGFQGRLLHLSAGQRLGVHLHTEARARHAWQLTQGATVLGLFRVTPEIPAGLPSPRSEGGGGSGGGTGGGGSQVSHRYPRIQSIKVQFTEYKKEKGFILTSQKEDEIMKVQNNSVIINCDGFYLISLKGYFSQEVNISLHYQKDEEPLFQLKKVRSVNSLMVASLTYKDKVYLNVTTDNTSLDDFHVNGGELILIHQNPGEFCVLGGGSGGGQVSHRYPRIQSIKVQFTEYKKEKGFILTSQKEDEIMKVQNNSVIINCDGFYLISLKGYFSQEVNISLHYQKDEEPLFQLKKVRSVNSLMVASLTYKDKVYLNVTTDNTSLDDFHVNGGELILIHQNPGEFCVLGGGSGGGQVSHRYPRIQSIKVQFTEYKKEKGFILTSQKEDEIMKVQNNSVIINCDGFYLISLKGYFSQEVNISLHYQKDEEPLFQLKKVRSVNSLMVASLTYKDKVYLNVTTDNTSLDDFHVNGGELILIHQNPGEFCVL
notes: scDuokine from HEK293; VH leader left out; also called single-chain Duokine sc4-1BBL-scOX40L; not shown: N-terminal FLAG tag
